Sequences with one replicate were seen in a single cluster, so their values are uncertain.
System: ATP
Assay: switch fluorescence ratio, 500 uM ATP over buffer (Cy3 cluster intensity, sum of 5 cycles each) (fold (ratio)); higher = stronger signal-on switching upon ATP binding; sequences stand for … in TCGTCGGCAGCGTCAGATGTGTATAAGAGACAGTTTTTTTTTTTTTTTTTTTTTTTTT…TC
Conditions: aptamer strand: ATP DNA aptamer (quencher-CACCTGGGGGAGTATTGCGGAGGAAGG + anchor), 100 nM annealed; ATP concentration: 500 uM; one replicate
Outline: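 For every switch-domain sequence, the fluorescence ratio is the mean of per-cluster values, each being summed target-cycle Cy3 intensity over summed buffer-cycle Cy3 intensity. Clusters outside 100-1000 RFU were excluded. On a modified Illumina MiSeq flow-cell, the Cy3-labelled switching-strand clusters were annealed to 100 nM quencher-labelled ATP aptamer, imaged in selection buffer and then after 15 min with 500 uM ATP at 22 °C. Five such cycles were run, with NaOH stripping and re-annealing between them.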
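Note: ATP exposure 15 min at 22 °C before imaging.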

Sequence	switch fluorescence ratio
TCGGGGCAAA	1.05
CACGGGAACC	1.01
AGGCCTAGGG	0.979
GCTGCTCTTT	0.989
TCTGTGCTAT	1.08
GTGTATCTT	0.994
GTTCGATGTT	1
ATCATGGACC	1.04
ATACTTTTAT	1.07
CGTGAGAATT	0.975
TAGCTCAGTT	0.967
TTTTATGG	0.965
TGTGTCGGGG	0.995
AATCATCATG	1.18
CGCGCACAAC	3.32
GTGAGGATTC	0.995
AAGACCCAAC	1.04
AAAGCTATAA	1.2
GGCATAAACT	1.02
TCGAAATTCC	1.11
CCGTCATATG	1.09
AAGTGTTG	0.971
TCTGCACATG	1.04
GGGTCCGTGA	1.02
ATAAGCAGAG	1.01
AATCATTTTA	0.993

Sequence	switch fluorescence ratio
TTATGTTAAC	1.02
ACACCAGCCG	1.05
ACTCCACACT	1.7
GAGGTTGTCG	0.963
TGCTATCCTA	1.03
GGACTATATA	1.02
ATCCATCGCG	1.04
TATGACGGAA	1.08
ATGTTACATA	0.996
TAAAGGTCCG	1.1
AAATTTGATG	0.997
TTAACATACC	0.985
GGGATATA	1.01
CTAAAAGGAG	0.98
AGGTATATAG	0.97
TACAGTCTGC	1.03
GTAGCTAGGA	1.08
AATTACACCG	1.03
GATTGGATCT	1.01
GGGAGCCTAA	1
CGAGTCAGGT	1.03
TATGTTTCTT	1.03
AAATATCGCC	1.01
TCACACTAGT	1.04
ACCTTAGGGA	1.01
AGAACTCACT	1.03

Sequence	switch fluorescence ratio
AATTCCCGAC	1.03
TTCAACGAAT	0.993
GGGGTTCAGT	0.99
TTCCCATGCC	1.06
AATCACATGC	1.05
AGGCATGCAT	0.968
TACTGATTTC	1.01
GCTCAAGCCG	0.977
TTCTGGATTG	0.976
GCCTTGTGAC	1.08
CGGCCTGAAA	0.939
AAGGGAGTCG	1.02
TTAGTCTACG	1.03
ACACGCTATG	1.18
TTCCGTCCGA	1.34
CTCGGGACCT	1.15
CTGCATAAAA	1.12
CGTGTTATTG	1
CTATGGTTTG	0.972
AAGATCGGGA	1.01
GCAAGGAACG	1.02
TAACTGCGTC	0.99
CAAGGGACCT	0.992
AAACGAGTAT	1.04
TACGCCAGTA	1
CATTGATTCT	0.954

Sequence	switch fluorescence ratio
GATCTCGCGC	0.987
GAAGGGTCGT	0.978
AAATAAGTAA	0.998
TTCCGGGCA	1.91
GCAGCCCGGC	0.938
CCCGGCTCGT	1.02
AACACTTTAC	1.38
GCACGTAGAC	1.12
GCAGCTATTG	1.05
CTGGCACCAA	1.02
CGAGAGATCA	1.02
AGTCAAGAGT	1.04
CCTAGGCGTA	1.07
GCTGACTGTC	1.02
ATTCGGCCTG	1.01
GTTGGTGCAA	1.02
GGCATTGATA	1
CCAGGGAAAT	1.01
CATGCGGCAA	3.55
TAAGTGATTG	0.986
AGTTAAGGAG	0.983
GTAGCCGGTC	1.06
AAGTTTGAAA	1.01
AAGGGGTC	1.05
AATGAGAGCG	0.975
CCAGACGCCG	0.889

Sequence	switch fluorescence ratio
GGCTCAGGGA	1.03
AAAGTCGTTA	0.977
TTTCCCCCCT	1.06
ACGTATGGGT	1.04
CGTGAGATTT	0.979
TCGTATATAG	1
AGTGTATGTT	1.01
CAATGTTGGA	0.966
TTGTGATAAG	1.01
GCACGCGCTA	1.02
GCCGGGATCC	1
TTACACCGAC	1.53
GTAGTAATAA	3.04
CGGAATTCTG	1.02
TTGGTTAA	0.993
TAGTCGCGAT	1.03
TTTCTGGACT	1.06
TTGATTAAAA	0.966
CATGCATG	0.969
TTGGTCCATC	1.02
GTTGGGCAAG	0.984
CATCTGAAGC	1.12
CATCCAAGCT	1.11
CGGCCGTTAG	1.03
GTACGTGTTC	0.975
CGGCGGACGA	0.999

Sequence	switch fluorescence ratio
TCGACTATTG	0.911
AAACGGAAAC	1.25
TAAATAGGA	1.01
TACGTGTGGC	1.04
TTCTAGCAC	1.1
CTTGAGACGC	1.08
ATGGAGCACC	1.27
GCCGTAAATG	1.03
GGCCGGTCAG	1.04
TGCAATTTG	2.05
TCGGCCAGAT	1.04
TGGGGTAATA	1.01
CGAGAAGGAT	1.04
TCCCGTTA	1.03
TAATACTGC	1.05
GGAATGTATT	1
CTCCTTTTGT	0.99
CCTCTTCAGA	1.19
GCAGCGCCTT	0.993
GAAATGTATG	0.99
TAGTTTATAG	0.996
TTAGAAACAT	1.11
GGGCTGCGGC	0.992
TTTATTACGA	1.02
TGATGGAAG	1.03
CAACTAAATG	1.01

Sequence	switch fluorescence ratio
AATCTGACGA	1.36
GCTTTGCCGA	1.01
TGAACTGGGG	0.967
CGGGGCCAAG	1
GGACTTGGTG	1.03
CATGTGAGAA	1.01
CAATTAAGAG	0.995
CAGTTTGGGA	0.965
CGTGTGCGAT	0.981
TGCGTTATAC	2.5
CCTTTAGGCG	1.24
TGTTCATTCA	0.992
GGTTTCAAAC	1.02
CTCGTTTGCG	0.968
CCGAAAGTTC	2.02
ACCCGAGGGG	1.11
TGGACATAAA	0.987
GTTGCTTGGG	1
AACTCTATTG	0.996
TCGAGATTTT	1
AAGGTTTATA	1.05
CCTCGCTCAG	2.97
TCCCGGTATT	0.984
ACGCGGAGAA	1.02
GTATGCATGA	1
CGTATTATCA	1

Sequence	switch fluorescence ratio
GAGACTGGGT	1.01
TAGATGGTTA	1
AAAGAAGTAT	1.01
TATCATTTTC	1.04
GGATTAGGT	0.99
TAGAGTGCTT	0.99
AAAACACGAG	1.01
CGAGACCGTT	1.01
TGACCACTTG	1.03
TCTGCTCTTA	1.04
GACAATGCTC	1.97
TCCCATCTTT	1.02
TCCTTATTGT	0.974
CTGGACTAGT	0.967
AGATCTGTTA	0.993
TAATCTATTA	1.02
CATGCGATCA	1.01
CTTACGTCCA	1.07
GTGTTCGCCT	1.02

Reference: the supplement of paper PMC10126150
